# The supplement of paper PMC8728848
# The list shows a part of the results.
# B1: ASA (Allium sativum) (protein)
# chain: KAHEKERMGRNTPSAKLMSIAAVAAILTILASTCMARNLLTNGEGLYAGQSLNVEPYHFIMQEDCNLVLYDHSTAVWATNTDIPGKKECRAVLQSDGNFVVYDADGRPLWASHSVRGNGNYVLVLQEDGNVVIYGSDIWSTGTYVKAARGPVVVAMNGTVDGGSLIRPVIVNKNHVPVIRKVGTLSRNILRNDEGLYAGQSLDVEPYHFIMHEDCNLVLYDHSTAVWASNTDIPGKKGCKAVLQSDGNFVVYDAEGRSLWASHSVRGNGNYVLVLQEDGNVVIYGSDIWSTDTYRKSARGPVIRKVGTLAGAA
# What was measured:
# Assay in all cases: glycan array binding signal (z-score within array); higher = stronger binding
# Conditions in all cases: glycan notation: IUPAC condensed, linker removed
# Gal(a1-4)GlcNAc = target: Gal(a1-4)GlcNAc
# Summary of the method: (§1)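 The binding signal is a Z-score computed within each array and averaged over linkers. Arrays of the same protein sequence at different concentrations or buffers were also averaged together. Data originate from 3228 arrays in the Consortium for Functional Glycomics database, kept only where the protein sequence was available.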
# Gal(a1-6)Glc = target: Gal(a1-6)Glc
# Summary of the method: as §1
# Gal(b1-2)Gal = target: Gal(b1-2)Gal
# Summary of the method: as §1
# Gal(b1-3)Gal = target: Gal(b1-3)Gal
# Summary of the method: as §1
# Gal(b1-3)GalNAc = target: Gal(b1-3)GalNAc
# Summary of the method: as §1
# [1] = target: Gal(b1-3)GalNAc(b1-3)Gal(a1-4)Gal(b1-4)Glc
# Summary of the method: as §1
# [2] = target: Gal(b1-3)GalNAc(b1-3)Gal(b1-4)Glc
# Summary of the method: as §1
# [3] = target: Gal(b1-3)GalNAc(b1-3)Gal(b1-4)GlcNAc
# Summary of the method: as §1
# [4] = target: Gal(b1-3)GalNAc(b1-4)Gal(b1-4)Glc
# Summary of the method: as §1
# [5] = target: Gal(b1-3)GalNAc(b1-4)[Neu5Ac(a2-3)]Gal(b1-4)Glc
# Summary of the method: as §1
# [6] = target: Gal(b1-3)[Fuc(a1-4)]GlcNAc
# Summary of the method: as §1
# [7] = target: Gal(b1-3)[Fuc(a1-4)]GlcNAc(b1-3)Gal(b1-4)GlcNAc
# Summary of the method: as §1
# [8] = target: Gal(b1-3)[Fuc(a1-4)]GlcNAc(b1-3)Gal(b1-4)[Fuc(a1-3)]GlcNAc
# Summary of the method: as §1
# [9] = target: Gal(b1-3)[GlcNAc(b1-6)]GalNAc
# Summary of the method: as §1
# [10] = target: Gal(b1-3)[GlcNAc(b1-6)]GlcNAc
# Summary of the method: as §1
# [11] = target: Gal(b1-3)[Neu5Ac(a2-6)]GalNAc
# Summary of the method: as §1
# [12] = target: Gal(b1-3)[Neu5Ac(a2-6)]GlcNAc
# Summary of the method: as §1
# [13] = target: Gal(b1-3)[Neu5Ac(a2-6)]GlcNAc(a1-4)Gal(b1-4)Glc
# Summary of the method: as §1
# [14] = target: Gal(b1-3)[Neu5Ac(b2-6)]GlcNAc
# Summary of the method: as §1
# [15] = target: Gal(b1-4)GalNAc(a1-3)[Fuc(a1-2)]Gal(b1-4)GlcNAc
# Summary of the method: as §1
# [16] = target: Gal(b1-4)GalNAc(b1-3)[Fuc(a1-2)]Gal(b1-4)GlcNAc
# Summary of the method: as §1
# Gal(b1-4)Glc = target: Gal(b1-4)Glc
# Summary of the method: as §1
# Gal(b1-4)Glc6S = target: Gal(b1-4)Glc6S
# Summary of the method: as §1
# Gal(b1-4)GlcNAc = target: Gal(b1-4)GlcNAc
# Summary of the method: as §1
# [17] = target: Gal(b1-4)GlcNAc(b1-2)Man(a1-3)[Gal(b1-4)GlcNAc(b1-2)Man(a1-6)]Man(b1-4)GlcNAc(b1-4)GlcNAc
# Summary of the method: as §1
# [18] = target: Gal(b1-4)GlcNAc(b1-3)Gal(b1-4)Glc
# Summary of the method: as §1
# [19] = target: Gal(b1-4)GlcNAc(b1-3)Gal(b1-4)GlcNAc
# Summary of the method: as §1
# [20] = target: Gal(b1-4)GlcNAc(b1-3)Gal(b1-4)GlcNAc(b1-3)Gal(b1-4)GlcNAc
# Summary of the method: as §1
# [21] = target: Gal(b1-4)GlcNAc(b1-3)Gal(b1-4)[Fuc(a1-3)]GlcNAc(b1-3)Gal(b1-4)[Fuc(a1-3)]GlcNAc
# Summary of the method: as §1
# [22] = target: Gal(b1-4)GlcNAc(b1-3)GalNAc
# Summary of the method: as §1
# [23] = target: Gal(b1-4)GlcNAc(b1-3)[Gal(b1-4)GlcNAc(b1-6)]GalNAc
# Summary of the method: as §1
# [24] = target: Gal(b1-4)GlcNAc(b1-6)GalNAc
# Summary of the method: as §1
# [25] = target: Gal(b1-4)GlcNAc(b1-6)[Gal(b1-3)]GalNAc
# Summary of the method: as §1
# [26] = target: Gal(b1-4)GlcNAc(b1-6)[Gal(b1-3)]GlcNAc
# Summary of the method: as §1
# Gal3S(b1-3)GalNAc = target: Gal3S(b1-3)GalNAc
# Summary of the method: as §1
# Gal3S(b1-3)GlcNAc = target: Gal3S(b1-3)GlcNAc
# Summary of the method: as §1
# [27] = target: Gal3S(b1-3)[Fuc(a1-4)]GlcNAc
# Summary of the method: as §1
# Gal3S(b1-4)Glc = target: Gal3S(b1-4)Glc
# Summary of the method: as §1
# Gal3S(b1-4)Glc6S = target: Gal3S(b1-4)Glc6S
# Summary of the method: as §1
# Gal3S(b1-4)GlcNAc = target: Gal3S(b1-4)GlcNAc
# Summary of the method: as §1
# Gal3S(b1-4)GlcNAc6S = target: Gal3S(b1-4)GlcNAc6S
# Summary of the method: as §1
# Gal3S6S(b1-4)GlcNAc = target: Gal3S6S(b1-4)GlcNAc
# Summary of the method: as §1
# Gal3S6S(b1-4)GlcNAc6S = target: Gal3S6S(b1-4)GlcNAc6S
# Summary of the method: as §1
# Gal4S(b1-4)GlcNAc = target: Gal4S(b1-4)GlcNAc
# Summary of the method: as §1
# Gal4S6S(b1-4)GlcNAc = target: Gal4S6S(b1-4)GlcNAc
# Summary of the method: as §1
binder,measurement,setting,value
B1,glycan array binding signal (z-score),Gal(a1-4)GlcNAc,-0.223
same,glycan array binding signal (z-score),Gal(a1-6)Glc,-0.214
same,glycan array binding signal (z-score),Gal(b1-2)Gal,-0.229
same,glycan array binding signal (z-score),Gal(b1-3)Gal,-0.226
same,glycan array binding signal (z-score),Gal(b1-3)GalNAc,-0.222
same,glycan array binding signal (z-score),[1],-0.229
same,glycan array binding signal (z-score),[2],-0.235
same,glycan array binding signal (z-score),[3],-0.231
same,glycan array binding signal (z-score),[4],-0.222
same,glycan array binding signal (z-score),[5],-0.196
same,glycan array binding signal (z-score),[6],-0.215
same,glycan array binding signal (z-score),[7],-0.208
same,glycan array binding signal (z-score),[8],-0.193
same,glycan array binding signal (z-score),[9],-0.211
same,glycan array binding signal (z-score),[10],-0.181
same,glycan array binding signal (z-score),[11],-0.233
same,glycan array binding signal (z-score),[12],-0.19
same,glycan array binding signal (z-score),[13],-0.154
same,glycan array binding signal (z-score),[14],-0.217
same,glycan array binding signal (z-score),[15],-0.234
same,glycan array binding signal (z-score),[16],-0.207
same,glycan array binding signal (z-score),Gal(b1-4)Glc,-0.23
same,glycan array binding signal (z-score),Gal(b1-4)Glc6S,-0.198
same,glycan array binding signal (z-score),Gal(b1-4)GlcNAc,-0.223
same,glycan array binding signal (z-score),[17],-0.037
same,glycan array binding signal (z-score),[18],-0.205
same,glycan array binding signal (z-score),[19],-0.165
same,glycan array binding signal (z-score),[20],-0.217
same,glycan array binding signal (z-score),[21],-0.166
same,glycan array binding signal (z-score),[22],-0.23
same,glycan array binding signal (z-score),[23],-0.173
same,glycan array binding signal (z-score),[24],-0.212
same,glycan array binding signal (z-score),[25],-0.205
same,glycan array binding signal (z-score),[26],-0.217
same,glycan array binding signal (z-score),Gal3S(b1-3)GalNAc,-0.229
same,glycan array binding signal (z-score),Gal3S(b1-3)GlcNAc,-0.196
same,glycan array binding signal (z-score),[27],-0.162
same,glycan array binding signal (z-score),Gal3S(b1-4)Glc,-0.217
same,glycan array binding signal (z-score),Gal3S(b1-4)Glc6S,-0.184
same,glycan array binding signal (z-score),Gal3S(b1-4)GlcNAc,-0.218
same,glycan array binding signal (z-score),Gal3S(b1-4)GlcNAc6S,-0.214
same,glycan array binding signal (z-score),Gal3S6S(b1-4)GlcNAc,-0.207
same,glycan array binding signal (z-score),Gal3S6S(b1-4)GlcNAc6S,-0.166
same,glycan array binding signal (z-score),Gal4S(b1-4)GlcNAc,-0.219
same,glycan array binding signal (z-score),Gal4S6S(b1-4)GlcNAc,-0.222
